Source: the supplement of paper PMC6828730
Structures can show the parent of a compound that is named as a salt. Some of the results follow. Most values come without repeats; read them as rough.

What follows are compounds tested on hiPSC-derived cardiomyocytes (assay: time to death of most cells in well after compound addition (days); higher = less cardiotoxic; extreme values may be limits of the assay). Conditions: screen: 4; 10 µM.

Row | Compound | time to death of most cells in well
1 | COc1cc2nccc(Oc3ccc(NC(=O)C4(C(=O)Nc5ccc(F)cc5)CC4)cc3)c2cc1OC | > 7
2 | COCCOc1ccc2c(c1)ncn2-c1ccc2cccc(N3CCC(N)CC3)c2n1 | > 7
3 | Cc1cnc(Nc2ccc(F)cc2Cl)nc1-c1c[nH]c(C(=O)NC(CO)c2cccc(Cl)c2)c1 (configuration not stated) | > 7
4 | Nc1nccc(Oc2ccc(NC(=O)c3c[nH]cc(-c4ccc(F)cc4)c3=O)cc2F)c1Cl | > 7
5 | Cc1[nH]c(/C=C2\C(=O)Nc3ccc(S(=O)(=O)Cc4c(Cl)cccc4Cl)cc32)c(C)c1C(=O)N1CCC[C@@H]1CN1CCCC1 | 5
6 | OC(c1cc(-c2ccc(Cl)cc2)nc2ccccc12)C1CCCCN1 (configuration not stated) [Vacquinol-1] | 1.5
7 | Nc1nc(N)c(N=O)c(OCC2CCCCC2)n1 | > 7
8 | CCCNC(=O)Nc1ccc(Oc2ncnc3cc(OC)c(OC)cc23)cc1Cl | > 7
9 | Cc1cnc(-c2cnc(NCCNc3ccc(C#N)cn3)nc2-c2ccc(Cl)cc2Cl)[nH]1 | > 7
10 | COc1cc2c(Oc3ccc(NC(=O)C4(C(=O)Nc5ccc(F)cc5)CC4)cc3F)ccnc2cc1OCCCN1CCOCC1 | 3.5
11 | CC(C)CCN1c2nc(Nc3cc(F)c(O)c(F)c3)ncc2N(C)C(=O)C1C (configuration not stated) | > 7
12 | COc1cc(Nc2ncc3c(n2)-c2ccc(Cl)cc2C(c2c(F)cccc2OC)=NC3)ccc1C(=O)O [Alisertib (MLN8237)] | > 7
13 | COc1ccc2c(Oc3ccc(NC(=O)c4c(C)n(CC(C)(C)O)n(-c5ccccc5)c4=O)nc3)ccnc2c1 | > 7
14 | CC[C@H](Nc1ncnc2[nH]cnc12)c1nc2cccc(F)c2c(=O)n1-c1ccccc1 [Idelalisib (CAL-101, GS-1101)] | > 7
15 | CCCS(=O)(=O)Nc1ccc(F)c(C(=O)c2c[nH]c3ncc(Cl)cc23)c1F | > 7
16 | O=C(c1ccc(Nc2nccc(-c3cc4ccccc4s3)n2)cc1)N1CCC(N2CCCC2)CC1 [IKK-16 (IKK Inhibitor VII)] | 1
17 | C=CC(=O)N1CCCC(n2c(=O)n(-c3ccc(Oc4ccccc4)cc3)c3c(N)ncnc32)C1 (configuration not stated) [ONO-4059 analogue] | > 7
18 | N#Cc1c(Oc2ccc(F)c(NC(=O)Cc3cccc(C(F)(F)F)c3)c2)ccc2nc(NC(=O)C3CC3)sc12 | > 7
19 | CN(c1ccccc1CNc1nc(Nc2ccc3c(c2)CC(=O)N3)ncc1C(F)(F)F)S(C)(=O)=O | > 7

Row | Compound | time to death of most cells in well
20 | N#Cc1ccc2[nH]c(O)c(-c3ccc(CN4CCOCC4)cn3)c2c1 | > 7
21 | Cc1[nH]c2ccccc2c1C1=C(NCCc2ccc(F)cc2)C(=O)N(C)C1=O | > 7
22 | NC[C@@](O)(c1ccc(Cl)cc1)c1ccc(-c2cn[nH]c2)cc1 | 1
23 | CN(c1ncccc1CNc1nc(Nc2ccc3c(c2)CC(=O)N3)ncc1C(F)(F)F)S(C)(=O)=O | > 7
24 | NC1(Cc2ccc(Cl)cc2)CCN(c2ncnc3[nH]ccc23)CC1 | > 7
25 | Nc1ncnc2c1c(-c1cccc(OCc3ccccc3)c1)cn2C1CC(CN2CCC2)C1 (configuration not stated) | 3.5
26 | CC(C)N(CCC(=O)c1ccc2ccccc2c1)Cc1ccccc1 | > 7
27 | O=c1ccc2ccc(O)c(O)c2o1 [Daphnetin] | > 7
28 | CN1CC[C@H](c2c(O)cc(O)c3c(=O)cc(-c4ccccc4Cl)oc23)[C@H](O)C1 [Flavopiridol HCl] | 6.5
29 | Cn1sc(=O)n(Cc2ccccc2)c1=O | 3
30 | O=c1c(-c2ccc(O)cc2)coc2cc(O)cc(O)c12 [Genistein] | > 7
31 | O=C(Nc1c[nH]nc1-c1nc2ccc(CN3CCOCC3)cc2[nH]1)NC1CC1 | > 7
32 | CO[C@H]1C[C@@H]2CC[C@@H](C)[C@@](O)(O2)C(=O)C(=O)N2CCCC[C@H]2C(=O)O[C@H]([C@H](C)C[C@@H]2CC[C@@H](OP(C)(C)=O)[C@H](OC)C2)CC(=O)[C@H](C)/C=C(\C)[C@@H](O)[C@@H](OC)C(=O)[C@H](C)C[C@H](C)/C=C/C=C/C=C/1C [Ridaforolimus (Deforolimus, MK-8669)] | > 7
33 | CNCc1ccc(-c2cc(-c3nc(-c4ccc(S(=O)(=O)C(C)C)cc4)cnc3N)on2)cc1 | > 7
34 | Nc1ccc(C(=O)Nc2cccc(-c3nc(N4CCOCC4)c4oc5ncccc5c4n3)c2)cn1 | > 7
35 | NC(=O)c1ccc(N(C(N)=O)c2c(F)cccc2F)nc1-c1ccc(F)cc1F | > 7
36 | COc1cc(CCc2cc(NC(=O)c3ccc(N4CC(C)NC(C)C4)cc3)n[nH]2)cc(OC)c1 (configuration not stated) | 5
37 | C=CC(=O)Nc1cc(Nc2nccc(-c3cn(C)c4ccccc34)n2)c(OC)cc1N(C)CCN(C)C [Osimertinib (AZD9291)] | 3.5
